Test results from US20250002564A1 (HOSPITAL FOR SICK CHILDREN, published 2025).
Values joined by “and” are separate entries in the source; they are usually repeats but may differ in a detail not shown here. Equal entries are not always repeated.

B1: MB 158 (other)
chain 1: DIQMTQSPSSLSASVGDRVTITCRASQSISRYLNWYQQKPGKAPKLLIYDASNLESGVPSRFSGSGSGTDFTLTISSLQPEDFATYYCQQANSFPLTFGGGTKVDIKRTVAAPSVFIFPPSDEQLKSGTASVVCLLNNFYPREAKVQWKVDNALQSGNSQESVTEQDSKDSTYSLSSTLTLSKADYEKHKVYACEVTHQGLSSPVTKSFNRGECGGGGSGGGGSGGGGSGGGGSGGGGSGGGGSGGGGSGGGGSGGGGSGGGGSGGGGSGGGGSGGGGSGGGGSQVQLVQSGAEVKKPGASVKVSCKASGYTFTGYYMHWVRQAPGQGLEWMGWINPLNGGTNFAPKFQGRVTMTRDTSTSTVYMELSSLRSEDTAVYYCARDPGGSYSNDAFDIWGQGTLVTVSSASTKGPSVFPLAPSSKSTSGGTAALGCLVKDYFPEPVTVSWNSGALTSGVHTFPAVLQSSGLYSLSSVVTVPSSSLGTQTYICNVNHKPSNTKVDKKVEPKSCGGGGSGGGGSGGGGSGGGGSGGGGSGG[about 200 residues omitted]
chain 2: [human IgG1 Fc omitted]GGGGSGGGGSGGGGSGGGGSGGGGSGGGGSGGGGSGGGGSGGGGSGGGGSGGGGSGGGGSGGGGSGGGGS[human IgG1 Fc omitted]GGGGSGGGGSGGGGSGGGGSGGGGSGGSSQIRQNYSTDVEAAVNSLVNLYLQASYTYLSLGFYFDRDDVALEGVSHFFRELAEEKREGYERLLKMQNQRGGRALFQDIKKPAEDEW
chain 3: DIQMTQSPSSLSASVGDRVTITCRASQSISRYLNWYQQKPGKAPKLLIYDASNLESGVPSRFSGSGSGTDFTLTISSLQPEDFATYYCQQANSFPLTFGGGTKVDIKRTVAAPSVFIFPPSDEQLKSGTASVVCLLNNFYPREAKVQWKVDNALQSGNSQESVTEQDSKDSTYSLSSTLTLSKADYEKHKVYACEVTHQGLSSPVTKSFNRGECGGGGSGGGGSGGGGSGGGGSGGGGSGGGGSGGGGSGGGGSGGGGSGGGGSGGGGSGGGGSGGGGSGGGGSQVQLVQSGAEVKKPGASVKVSCKASGYTFTGYYMHWVRQAPGQGLEWMGWINPLNGGTNFAPKFQGRVTMTRDTSTSTVYMELSSLRSEDTAVYYCARDPGGSYSNDAFDIWGQGTLVTVSSASTKGPSVFPLAPSSKSTSGGTAALGCLVKDYFPEPVTVSWNSGALTSGVHTFPAVLQSSGLYSLSSVVTVPSSSLGTQTYICNVNHKPSNTKVDKKVEPKSCGGGGSGGGGSGGGGSGGGGSGGGGSGGGKTPDAMKAAMALEKKLNQALLDLHALGSARTDPHLCDFLETHFLDEEVKLIKKMGDHLTNLHRLGGPEAGLGEYLFERLTLRHD
B2: MB 180 (other)
chain 1: DIVMTQSPLSLPVTPGEPASISCRSSQSLLHSNGYNYLDWYLQKPGQSPQLLIYAASSLQSGVPDRFSGSGSGTDFTLKISRVEAEDVGVYYCQQYYSSPYTFGQGTKLEIKRTVAAPSVFIFPPSDEQLKSGTASVVCLLNNFYPREAKVQWKVDNALQSGNSQESVTEQDSKDSTYSLSSTLTLSKADYEKHKVYACEVTHQGLSSPVTKSFNRGECGGGGSGGGGSGGGGSGGGGSGGGGSGGGGSGGGGSGGGGSGGGGSGGGGSGGGGSGGGGSGGGGSGGGGSQVQLVQSGAEVKKPGSSVKVSCKASGYTFTSYAMHWVRQAPGQGLEWMGRISPRSGGTKYAQRFQGRVTITADESTSTAYMELSSLRSEDTAVYYCAREAVAGTHPQAGDFDLWGRGTLVTVSSASTKGPSVFPLAPSSKSTSGGTAALGCLVKDYFPEPVTVSWNSGALTSGVHTFPAVLQSSGLYSLSSVVTVPSSSLGTQTYICNVNHKPSNTKVDKKVEPKSCGGGGSGGGGSGGGGSGGGGSGGGGSGG[about 200 residues omitted]
chain 2: B1 chain 2
chain 3: DIVMTQSPLSLPVTPGEPASISCRSSQSLLHSNGYNYLDWYLQKPGQSPQLLIYAASSLQSGVPDRFSGSGSGTDFTLKISRVEAEDVGVYYCQQYYSSPYTFGQGTKLEIKRTVAAPSVFIFPPSDEQLKSGTASVVCLLNNFYPREAKVQWKVDNALQSGNSQESVTEQDSKDSTYSLSSTLTLSKADYEKHKVYACEVTHQGLSSPVTKSFNRGECGGGGSGGGGSGGGGSGGGGSGGGGSGGGGSGGGGSGGGGSGGGGSGGGGSGGGGSGGGGSGGGGSGGGGSQVQLVQSGAEVKKPGSSVKVSCKASGYTFTSYAMHWVRQAPGQGLEWMGRISPRSGGTKYAQRFQGRVTITADESTSTAYMELSSLRSEDTAVYYCAREAVAGTHPQAGDFDLWGRGTLVTVSSASTKGPSVFPLAPSSKSTSGGTAALGCLVKDYFPEPVTVSWNSGALTSGVHTFPAVLQSSGLYSLSSVVTVPSSSLGTQTYICNVNHKPSNTKVDKKVEPKSCGGGGSGGGGSGGGGSGGGGSGGGGSGGGKTPDAMKAAMALEKKLNQALLDLHALGSARTDPHLCDFLETHFLDEEVKLIKKMGDHLTNLHRLGGPEAGLGEYLFERLTLRHD
B3: MB 254 (other)
chain 1: DIQMTQSPSSLSASVGDRVTITCRASQGISSYLAWYQQKPGKAPKLLIYDASSLQIGVPSRFSGSGSGTDFTLTISSLQPEDFATYYCLQSYSTPPWTFGQGTKVEIKRTVAAPSVFIFPPSDEQLKSGTASVVCLLNNFYPREAKVQWKVDNALQSGNSQESVTEQDSKDSTYSLSSTLTLSKADYEKHKVYACEVTHQGLSSPVTKSFNRGECGGGGSGGGGSGGGGSGGGGSGGGGSGGGGSGGGGSGGGGSGGGGSGGGGSGGGGSGGGGSGGGGSGGGGSEVQLLESGGGLVQPGGSLRLSCAASGFTFSSSAMHWVRQAPGKGLEWVSAIGTGGDTYYADSVKGRFTISRDNSKNTLYLQMNSLRAEDTAVYYCAREGDGYNFYFDYWGQGTLVTVSSASTKGPSVFPLAPSSKSTSGGTAALGCLVKDYFPEPVTVSWNSGALTSGVHTFPAVLQSSGLYSLSSVVTVPSSSLGTQTYICNVNHKPSNTKVDKKVEPKSCGGGGSGGGGSGGGGSGGGGSGGGGSGG[about 200 residues omitted]
chain 2: B1 chain 2
chain 3: DIQMTQSPSSLSASVGDRVTITCRASQGISSYLAWYQQKPGKAPKLLIYDASSLQIGVPSRFSGSGSGTDFTLTISSLQPEDFATYYCLQSYSTPPWTFGQGTKVEIKRTVAAPSVFIFPPSDEQLKSGTASVVCLLNNFYPREAKVQWKVDNALQSGNSQESVTEQDSKDSTYSLSSTLTLSKADYEKHKVYACEVTHQGLSSPVTKSFNRGECGGGGSGGGGSGGGGSGGGGSGGGGSGGGGSGGGGSGGGGSGGGGSGGGGSGGGGSGGGGSGGGGSGGGGSEVQLLESGGGLVQPGGSLRLSCAASGFTFSSSAMHWVRQAPGKGLEWVSAIGTGGDTYYADSVKGRFTISRDNSKNTLYLQMNSLRAEDTAVYYCAREGDGYNFYFDYWGQGTLVTVSSASTKGPSVFPLAPSSKSTSGGTAALGCLVKDYFPEPVTVSWNSGALTSGVHTFPAVLQSSGLYSLSSVVTVPSSSLGTQTYICNVNHKPSNTKVDKKVEPKSCGGGGSGGGGSGGGGSGGGGSGGGGSGGGKTPDAMKAAMALEKKLNQALLDLHALGSARTDPHLCDFLETHFLDEEVKLIKKMGDHLTNLHRLGGPEAGLGEYLFERLTLRHD
B4: MB 120 (other)
chain 1: EIVMTQSPATLSVSPGERATLSCRASQSVSSRYLAWYQQKPGQAPRLLIYGASTRATGIPARFSGSGSGTEFTLTISSLQSEDFAVYYCQQYYTTPRTFGQGTRLEIKRTVAAPSVFIFPPSDEQLKSGTASVVCLLNNFYPREAKVQWKVDNALQSGNSQESVTEQDSKDSTYSLSSTLTLSKADYEKHKVYACEVTHQGLSSPVTKSFNRGECGGGGSGGGGSGGGGSGGGGSGGGGSGGGGSGGGGSGGGGSGGGGSGGGGSGGGGSGGGGSGGGGSGGGGSQVQLVQSGAEVKKPGASVKVSCKASGYTFTSYDINWVRQAPGQGLEWMGMIDPSGGSTSYAQKFQGRVTMTRDTSTSTVYMELSSLRSEDTAVYYCAKDFGGGTRYDYWYFDLWGRGTLVTVSSASTKGPSVFPLAPSSKSTSGGTAALGCLVKDYFPEPVTVSWNSGALTSGVHTFPAVLQSSGLYSLSSVVTVPSSSLGTQTYICNVNHKPSNTKVDKKVEPKSCGGGGSGGGGSGGGGSGGGGSGGGGSGG[about 200 residues omitted]
chain 2: B1 chain 2
chain 3: EIVMTQSPATLSVSPGERATLSCRASQSVSSRYLAWYQQKPGQAPRLLIYGASTRATGIPARFSGSGSGTEFTLTISSLQSEDFAVYYCQQYYTTPRTFGQGTRLEIKRTVAAPSVFIFPPSDEQLKSGTASVVCLLNNFYPREAKVQWKVDNALQSGNSQESVTEQDSKDSTYSLSSTLTLSKADYEKHKVYACEVTHQGLSSPVTKSFNRGECGGGGSGGGGSGGGGSGGGGSGGGGSGGGGSGGGGSGGGGSGGGGSGGGGSGGGGSGGGGSGGGGSGGGGSQVQLVQSGAEVKKPGASVKVSCKASGYTFTSYDINWVRQAPGQGLEWMGMIDPSGGSTSYAQKFQGRVTMTRDTSTSTVYMELSSLRSEDTAVYYCAKDFGGGTRYDYWYFDLWGRGTLVTVSSASTKGPSVFPLAPSSKSTSGGTAALGCLVKDYFPEPVTVSWNSGALTSGVHTFPAVLQSSGLYSLSSVVTVPSSSLGTQTYICNVNHKPSNTKVDKKVEPKSCGGGGSGGGGSGGGGSGGGGSGGGGSGGGKTPDAMKAAMALEKKLNQALLDLHALGSARTDPHLCDFLETHFLDEEVKLIKKMGDHLTNLHRLGGPEAGLGEYLFERLTLRHD

The binders below were run against T1, SARS-CoV-2 Spike on wild-type pseudotyped virus (PsV) (SARS-CoV-2) (assay: cell-based or functional assay).

Binder	IC50 SARS-CoV2 PsV (MB)
B1	0.1 µg/mL
B2	0.89 µg/mL
B3	9.3 µg/mL
B4	7.2 µg/mL

Target: T1, SARS-CoV-2 Spike on wild-type …
Test: cell-based or functional assay
Remark: another data set of the same source

Binder	Median IC50
B1	0.1 µg/mL and 43 pM
B2	0.89 µg/mL and 387 pM
B3	9.3 µg/mL and 4 nM
B4	7.2 µg/mL and 3.1 nM
